# Experimental data: the supplement of paper PMC11417369
# Some of the results follow.
# System: PfAP2-HC AP2 domain (GST-tagged)
# Test: gcPBM binding intensity (ln(normalized median fluorescence intensity)); higher = stronger DNA binding
# In short: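 For binding intensity, the highest Masliner-normalised natural-log median intensity across replicate spots of either probe orientation was taken. Protein bound to the array was stained with Alexa488 anti-GST antibody and scanned at 488 nm. The protein, GST-tagged P. falciparum DNA-binding domains from E. coli at about 25 μg on average, had been applied for 1 h to an Agilent 4 × 180k array of primer-extended double-stranded 36-bp intergenic genomic probes and negative controls.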
row,Sequence,gcPBM binding intensity (ln)
1,ATTGTTAAATATAATACACACGTTTTTAAAAATATA [CACACA_site5239],9.64
2,AAAAAAAAAAAACATACACACACATATATATATATA [CACACA_site8452],10.7
3,TAAAAATAAATAAATACATGCACCAAAAATAAATTT [TGCATGCA_site801],9.73
4,ATTGCCATTGTTAATGCATGTAACAATTCAGCTCAT [TGCATGCA_site56],9.45
5,TTGAGAAAAATTAATGGTACACATATTATAAGTATA [XGTACX_site6539],9.7
6,TGTATAACATTTAGGTGTACAATTATATATAATATA [XGTACX_site8131],9.57
7,TAATTGTACACATGCACACACAAATATTATAGATGT [CACACA_site6528],10.2
8,TGACATATTATTAGGTGGTCACGTCTCCACGTCAAG [XGTACX_site7943],9.39
9,AAGAAAAAAAAAAAAACACACATATATTTATTTATA [CACACA_site7042],9.63
10,TATACACATAGACACACACACAAAAAAAAAAAAAAA [CACACA_site6338],10.6
11,GAAAGAAAAAATGATGAATAGAGATCAAATCTATAT [XGTACX_negctrl_site28],9.6
12,TAAAAATTTGATCAAACACACGTTGCATAAATTATA [CACACA_site6040],9.73
13,AGGCTATAATACCATACACACATTTATAAAATAACA [CACACA_site6990],9.76
14,CTTTTGTATATTATATGTACACACAATAAGTTAATA [XGTACX_site1684],9.7
15,ACATATATTTATATATGTACATATGATATATACATA [XGTACX_site6122],9.58
16,TACATATAAACAATAACACACACCTAGGTACATGGA [CACACA_site8178],9.98
17,AATTAACAAAAACACACACACACACCCACAAAAAAA [CACACA_site517],11.4
18,TTTTTGTAAACCTACTTCATAATTATTTATATCTAT [XGTACX_negctrl_site599],9.72
19,AATACAAATATATATGCACACACATATACATACATA [CACACA_site8677],10.5
20,TACATTTTAATATAAGCATGCCTTTAGTTTTTTTCT [TGCATGCA_site829],9.76
21,CAATTTATTATATATGTGCACATATAATTTTACAAA,9.57
22,TAATTATTTTTATTGTTGCACTAGTAAAATTTTAAG [GTGCAC_site9946],9.42
23,TTTCTTTAACAAGTTAAACACACATACATATATACA [CACACA_site8810],9.65

row,Sequence,gcPBM binding intensity (ln)
1,ATCATTTCTATATAAGCACACACGTGGAATTTTTTT [CACACA_site2786],9.99
2,TTACTTATATGCATAGTGCAAATTTGGTAAATATCT,9.58
3,CACATACAGATATATACACACAAATATAAATACACA [CACACA_site6512],10.3
4,AATAAATATAAAAATGCACACACACTAATAAAAAAA [CACACA_site8201],11.4
5,AAAATAAATATATTATCCACGTTGTATATATATATA [XGTACX_negctrl_site136],9.72
6,TTTTTTTTTTCTTTTTTTTATTATATTAACGGAATT [GTGCAC_negctrl_site104],9.35
7,AAAAAGAAATACAAATAATATATATATATATATATT [TGCATGCA_negctrl_site458],9.57
8,CATAAAAATTGAAGCACACACACAAAAGAAATACAA [CACACA_site1112],10.7
9,AATAAACAAATAAATAAACACACAATATATGTATAT [CACACA_site9268],10
10,ATACATAAATTTATACGTACATATATAGATACATAA [XGTACX_site675],9.77
11,TTACATGCTAAAATTTGTACATATATGATAAATATT [XGTACX_site2648],9.61
12,TTGTTTTCACCAAATACACACAAGCATACACCCCAT [CACACA_site2717],10.1
13,AAGTAAAATAAGTATACACACATAAATATGTAAATA [CACACA_site6467],9.99
14,TTTTATTTTCGATGATGTACATTAAATTATACAGTA [XGTACX_site6053],9.5
15,AAATATTACTCCTCAAGTACACATAAAAAAAAAATA [XGTACX_site2085],9.65
16,TATTTTTTTTGATATTGTACTTTTTTATTATTTTTT [XGTACX_site566],9.74
17,TAAAAATTTAAGAAAACATGCATCTAACATATATAT [TGCATGCA_site342],9.58
18,AATATACAAAATAAATAAAATATATATATATATATA [CACACA_negctrl_site216],9.95
19,AAGTAATCATCATAAAGTACTAAATTATATTGTCAA [XGTACX_site5841],9.51
20,GAAAATATATTTAAGATGCACTTTAAAAATGTACTT,9.46
21,AAATTATATATAAAATGTACATATGTAGGTAATTTT [XGTACX_site5047],10.1
22,ACATTCTGATGGTGATTATTAATTATTACAAAAATT [CACACA_negctrl_site283],9.44
